Hit rate of the full screen: of about 360,000 compounds, about 16,000 (4.4%) were called active. This list was built around the results that the source calls inconclusive (neither active nor inactive); the mix of calls is not that of the screen. Calls follow the shape of the dose curve; as a rule, active = well fitted inhibition curve with a large enough effect; inconclusive = small, poorly fitted or top-dose-only effect; inactive = no such curve, though single readings can be large or run the other way. Potencies beside an inconclusive call are fits to weak or partial responses and may not hold up.
What follows are compounds tested against Bromodomain adjacent to zinc finger domain protein 2B (Homo sapiens) (UniProt Q9UIF8) (assay: qHTS Assay for Inhibitors of BAZ2B). Details: AlphaScreen BAZ2B-H3K14Ac peptide displacement; series mostly up to 114 µM.
Procedure, shortened: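 AlphaScreen luminescence quantifies BAZ2B engagement of H3K14Ac peptide; the protein and biotinylated peptide are both at 50 nM final, buffer PBS pH 7.4 with 0.01% Tween-20, all steps at room temperature.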
Also: nearly all actives have a fitted effect of over 60% in size.
Potency is read from the fitted curve at half-maximal effect; tags tell the direction and shape of the fitted curve.

Sequence of UniProt Q9UIF8 (Q9UIF8 whole entry, looked up, the tested form may be a part): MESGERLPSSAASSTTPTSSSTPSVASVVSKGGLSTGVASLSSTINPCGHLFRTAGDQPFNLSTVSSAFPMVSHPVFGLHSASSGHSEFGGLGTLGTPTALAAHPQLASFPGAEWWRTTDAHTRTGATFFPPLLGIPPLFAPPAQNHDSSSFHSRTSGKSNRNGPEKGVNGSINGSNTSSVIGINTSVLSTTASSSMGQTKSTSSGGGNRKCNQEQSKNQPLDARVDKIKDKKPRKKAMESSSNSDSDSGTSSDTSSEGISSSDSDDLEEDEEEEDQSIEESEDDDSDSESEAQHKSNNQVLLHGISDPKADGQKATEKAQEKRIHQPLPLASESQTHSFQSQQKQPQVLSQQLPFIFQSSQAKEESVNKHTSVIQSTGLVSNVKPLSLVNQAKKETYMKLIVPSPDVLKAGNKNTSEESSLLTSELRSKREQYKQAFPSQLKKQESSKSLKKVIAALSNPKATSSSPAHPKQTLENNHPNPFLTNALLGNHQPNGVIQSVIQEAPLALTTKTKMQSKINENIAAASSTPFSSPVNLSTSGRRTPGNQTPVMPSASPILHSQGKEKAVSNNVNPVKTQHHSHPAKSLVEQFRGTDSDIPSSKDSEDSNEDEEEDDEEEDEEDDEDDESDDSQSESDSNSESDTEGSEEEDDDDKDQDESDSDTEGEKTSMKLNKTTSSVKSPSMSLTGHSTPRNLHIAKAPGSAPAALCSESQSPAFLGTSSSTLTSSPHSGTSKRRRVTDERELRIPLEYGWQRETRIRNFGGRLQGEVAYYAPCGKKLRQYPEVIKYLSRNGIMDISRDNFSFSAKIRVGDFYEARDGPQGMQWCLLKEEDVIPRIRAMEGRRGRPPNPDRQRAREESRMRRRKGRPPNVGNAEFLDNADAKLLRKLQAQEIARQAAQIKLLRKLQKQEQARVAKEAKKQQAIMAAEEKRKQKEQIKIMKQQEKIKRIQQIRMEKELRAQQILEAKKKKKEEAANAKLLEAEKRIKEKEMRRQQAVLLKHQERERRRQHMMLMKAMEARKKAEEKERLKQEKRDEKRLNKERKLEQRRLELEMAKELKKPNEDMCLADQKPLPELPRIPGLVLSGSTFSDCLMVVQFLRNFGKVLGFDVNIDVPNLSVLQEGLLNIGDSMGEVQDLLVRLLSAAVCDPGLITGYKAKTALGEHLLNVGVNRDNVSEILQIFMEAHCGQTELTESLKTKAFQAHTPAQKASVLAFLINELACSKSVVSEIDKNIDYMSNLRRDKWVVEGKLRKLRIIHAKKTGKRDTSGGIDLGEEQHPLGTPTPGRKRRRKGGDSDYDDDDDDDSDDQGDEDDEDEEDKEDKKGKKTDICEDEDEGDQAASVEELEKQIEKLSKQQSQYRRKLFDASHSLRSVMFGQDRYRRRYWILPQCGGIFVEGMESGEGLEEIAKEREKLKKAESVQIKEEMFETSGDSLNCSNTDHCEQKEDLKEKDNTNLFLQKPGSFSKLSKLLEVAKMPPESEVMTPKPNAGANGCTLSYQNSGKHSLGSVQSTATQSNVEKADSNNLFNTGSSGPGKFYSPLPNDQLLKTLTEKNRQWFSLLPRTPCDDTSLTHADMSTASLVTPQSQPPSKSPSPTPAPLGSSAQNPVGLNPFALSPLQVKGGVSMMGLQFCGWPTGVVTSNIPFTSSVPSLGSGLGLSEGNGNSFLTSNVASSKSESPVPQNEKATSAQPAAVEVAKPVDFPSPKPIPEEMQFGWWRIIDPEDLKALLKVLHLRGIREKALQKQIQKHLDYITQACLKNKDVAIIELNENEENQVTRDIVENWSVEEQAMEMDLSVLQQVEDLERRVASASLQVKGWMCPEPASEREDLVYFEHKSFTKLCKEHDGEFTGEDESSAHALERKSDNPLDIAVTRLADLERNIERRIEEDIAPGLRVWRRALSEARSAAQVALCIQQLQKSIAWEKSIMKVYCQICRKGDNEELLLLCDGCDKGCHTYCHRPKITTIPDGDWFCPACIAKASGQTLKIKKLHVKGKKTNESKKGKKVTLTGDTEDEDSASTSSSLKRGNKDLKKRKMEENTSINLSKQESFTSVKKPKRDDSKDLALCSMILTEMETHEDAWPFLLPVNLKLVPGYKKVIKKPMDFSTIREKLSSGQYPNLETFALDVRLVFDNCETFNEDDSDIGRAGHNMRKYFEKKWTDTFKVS

Row | Structure (SMILES) | Potency
1 | Cc1cc(C)nc(NC(=S)Nc2ccccc2)n1 | inactive
2 | c1ccc(-c2cn3c(n2)-c2ccccc2C3)cc1 | inconclusive: 50.1 µM [inhibitor, partial curve]
3 | CC(C)CC(COCc1cccc(Cl)c1)N1CCN(C(=O)c2cccc(C(F)(F)F)c2)CCC1=O (stereo unspecified) | inconclusive: 100 µM [inhibitor, partial curve]
4 | COCCOC(=O)c1c(NC(=O)CSc2cccc[n+]2[O-])sc(C(N)=O)c1C | inconclusive: 89.1 µM [inhibitor, single point]
5 | O=C(NCc1cccnc1)c1cn(-c2ccccc2)nc1-c1cccs1 | inactive
6 | COC(=O)/C(=C\C(=O)c1ccccc1)Nc1ccc(OC)cc1 | active: 39.8 µM
7 | c1ccc(-c2nc(C3CCCCC3)c3ccccc3n2)cc1 | inactive
8 | O=C(NCCc1ccco1)C(=O)NCC1CCCN1S(=O)(=O)c1ccccc1 (stereo unspecified) | inactive
9 | COc1ccccc1OCCCSc1nc(-c2ccc(C(C)(C)C)cc2)nc2cc(=O)[nH]n12 | inconclusive: 70.8 µM [inhibitor, single point]
10 | COc1ccccc1CNC(=O)C1CCCN(C(=O)c2cnn(-c3ccc(F)cc3)c2-n2cccc2)C1 (stereo unspecified) | inactive
11 | Cc1cccc(N2CCN(S(=O)(=O)c3ccc(-c4coc(C)n4)cc3)CC2C)c1 (stereo unspecified) | inconclusive: 12.6 µM [inhibitor, partial curve]
12 | COc1ccc(CCNC(=O)C/C(C)=N/NC(=O)c2cnccn2)cc1 | inconclusive: 70.8 µM [inhibitor, single point]
13 | COC(=O)c1c(NC(=O)COc2ccc(Cl)cc2)sc2c1CC(C)(C)NC2(C)C | inconclusive: 70.8 µM [inhibitor, partial curve]
14 | Cc1ccccc1CSc1nnc(NC(=O)Cc2cccs2)s1 | active: 70.8 µM
15 | CC(=O)c1ccc(N2CCN(C(=O)C3CCCN(c4ncnc5c4nc4n5CCCCC4)C3)CC2)cc1 (stereo unspecified) | inconclusive: 56.2 µM [inhibitor, partial curve]
16 | CCOc1cc(CNCc2ccccn2)cc(Cl)c1OC | active: 56.2 µM
17 | CCc1c(C)sc(NC(=O)c2cc(C)on2)c1C#N | inactive
18 | CN(C)c1ccc(/C=N/O)cc1 | inactive
19 | O=C(Cc1ccc(F)cc1)Nc1nnc(-c2ccc(F)cc2)o1 | inconclusive: 56.2 µM [inhibitor, partial curve, poor fit]
20 | O=C(Nc1ccc(Cl)cc1)c1ccco1 | inconclusive: 89.1 µM [inhibitor, single point]
21 | CSc1nc(-c2ccco2)nn1C(=O)CCc1ccccc1 | inactive
22 | Cc1cc(NC(=O)CCCN2C(=O)c3cccnc3C2=O)ccc1Br | inconclusive: 79.4 µM [inhibitor, partial curve]
23 | CCOc1cc(C(=S)N2CCCC2)ccc1O | inactive
24 | CN(C)S(=O)(=O)c1cccc(-c2nnc(SCCNCCO)n2-c2ccc(F)cc2)c1 | active: 79.4 µM

Row | Structure (SMILES) | Potency
25 | COc1cccc(CNC(=O)C(CC(C)C)NS(=O)(=O)c2ccc3c(c2)oc(=O)n3C)c1 (stereo unspecified) | inactive
26 | COc1cc(/C=N/NC(=O)c2ccc(CSc3nncn3C)cc2)ccc1OCC(=O)N1CC(C)OC(C)C1 (stereo unspecified) | inactive
27 | S=C(NCCc1ccccc1)Nc1ccc(N2CCCCC2)cc1 | inconclusive: 15.8 µM [inhibitor, full curve]
28 | CCOc1cc(/C=C(/NC(C)=O)C(=O)O)cc(Cl)c1OCc1cccc(Br)c1 | active: 50.1 µM
29 | COc1ccccc1C1CCN(Cc2cccc(C(=O)N3CCC(O)CC3)c2)CC1 | inactive
30 | CC1CN(C(=O)N2CCC(C(=O)NCc3cccs3)CC2)c2cc(Cl)ccc2O1 (stereo unspecified) | inconclusive: 39.8 µM [inhibitor, partial curve]
31 | CC(C)N1CCN(C(=O)c2cccc(Cl)c2)CC1 | inconclusive: 89.1 µM [inhibitor, single point]
32 | O=C(NCCF)[C@H]1C[C@@H]1[C@H](NP(=O)(c1ccccc1)c1ccccc1)c1ccccc1 | inconclusive: 1.26 µM [inhibitor, full curve, poor fit]
33 | COc1ccc2c(c1)OC[C@H]1[C@H]2N2C(=O)c3cc(Br)ccc3NC(=O)[C@@]2(C)[C@H]1c1ccccc1 | inconclusive: 100 µM [inhibitor, single point]
34 | Cc1ccccc1Nc1nnc(SCC(=O)N(C)C2CCS(=O)(=O)C2)s1 (stereo unspecified) | inactive
35 | COc1ccc(C)cc1NC(=O)CSc1nnc(-c2ccccn2)n1Cc1ccco1 | inconclusive: 89.1 µM [inhibitor, single point]
36 | Nc1ccccc1Nc1nc2ccccc2[nH]1 | inconclusive: 79.4 µM [inhibitor, single point]
37 | CCOC(=O)C1CCN(S(=O)(=O)c2ccc3[nH]c4c(c3c2)CCCC4)CC1 | inconclusive: 35.5 µM [inhibitor, partial curve]
38 | Cc1ccc(NC(=O)C2CCN(S(=O)(=O)c3ccc4[nH]c5c(c4c3)CCCCC5)CC2)cc1 | inactive
39 | CCOC(=O)C1CCN(C(=O)c2ccc(OCC(=O)Nc3cccc(C(F)(F)F)c3)c(OC)c2)CC1 | inactive
40 | COC(=O)c1c(NC(=O)CCCOc2ccc(C(C)(C)C)cc2)sc2c1C(C(=O)OC)CC2 (stereo unspecified) | active: 28.2 µM
41 | CCc1ccc(NC(=O)NCCN2CCN(c3ccc(OC)cc3)CC2)cc1 | inconclusive: 35.5 µM [inhibitor, partial curve]
42 | COc1ccc(OC)c(NC(=O)C(=O)N/N=C/c2ccccc2[N+](=O)[O-])c1 | inconclusive: 89.1 µM [inhibitor, single point]
43 | CCN(CC)CCNC(=S)NC(=O)c1cn(-c2ccccc2)nc1-c1ccc(OC)cc1 | inconclusive: 31.6 µM [inhibitor, partial curve]
44 | COCCNC(=O)Nc1cc(C(=O)NCc2ccc(C(C)C)cc2)ccc1N1CCCC1 | inconclusive: 56.2 µM [inhibitor, partial curve]
45 | COc1cc(C2NC(=O)c3c(sc4c3CCN(C)C4)N2)cc(Br)c1OC(=O)c1ccc(C)cc1 (stereo unspecified) | inconclusive: 17.8 µM [inhibitor, full curve, poor fit]
46 | Nc1cc(-c2cccc(Br)c2)nn1Cc1ccccc1 | inconclusive: 39.8 µM [inhibitor, partial curve]
47 | CC1=Nc2ccccc2/C1=C/c1c(N)n2c(S(=O)(=O)C(C)C)nsc2nc1=O | inconclusive: 70.8 µM [inhibitor, single point]
48 | Cn1c(=O)c2c(nc(Oc3ccc4ccccc4c3)n2C)n(C)c1=O | inconclusive: 50.1 µM [inhibitor, partial curve]

Row | Structure (SMILES) | Potency
49 | COc1ccc(OC)c(NC(=O)c2c(N3CCCC3=O)c3cc(OC)ccc3n2C)c1 | inconclusive: 89.1 µM [inhibitor, single point]
50 | COCc1[nH]nc2c1C(c1cc(OC)c(O)c(OC)c1)C(C#N)=C(N)O2 (stereo unspecified) | inconclusive: 89.1 µM [inhibitor, single point]
51 | Cn1c(SCC(=O)c2ccccc2)nnc1-c1cnccn1 | inconclusive: 89.1 µM [inhibitor, single point]
52 | Cc1cc(NC(=O)C2CC(=O)N(c3ccc(F)cc3)C2)no1 (stereo unspecified) | inactive
53 | O=C(COC(=O)c1cccc(S(=O)(=O)N2CCOCC2)c1)Nc1nc(-c2ccccc2Cl)cs1 | inconclusive: 79.4 µM [inhibitor, single point]
54 | COc1cc(OC)cc(C(=O)NCCCN2CCN(CCCNC(=O)c3cc(OC)cc(OC)c3)CC2)c1 | inconclusive: 70.8 µM [inhibitor, single point]
55 | CCOc1ccc(OCC)c(NS(=O)(=O)c2cc(-c3cnc(C)o3)ccc2OC)c1 | inconclusive: 39.8 µM [inhibitor, partial curve]
56 | COC(=O)c1sccc1NC(=S)N1C(C)CCCC1C (stereo unspecified) | inactive
57 | O=C(O)C1Cc2ccccc2CN1S(=O)(=O)c1ccccc1 (stereo unspecified) | inconclusive: 63.1 µM [inhibitor, partial curve, poor fit]
58 | C#CCNC(=O)C1=C[C@@H](c2ccc(Br)cc2)C[C@@H](OCCCCO)O1 | inconclusive: 79.4 µM [inhibitor, single point]
59 | COC(=O)c1cc2sc(Cl)cc2n1Cc1c(C)cc(C)cc1C | inactive
60 | Cc1ccc(/C=C2\Oc3c(ccc(O)c3CN3CCN(C)CC3)C2=O)cc1 | inactive
61 | Cc1nn(-c2ccccc2)c(OC(=O)c2cccs2)c1S(=O)(=O)c1ccc([N+](=O)[O-])cc1 | active: 79.4 µM
62 | O=C(NCc1ccco1)[C@@H]1CSC2c3ccccc3C(=O)N21 (stereo partly specified) | inconclusive: 79.4 µM [inhibitor, partial curve]
63 | N/N=C(\c1ccccc1)c1cc(Br)ccc1N | inconclusive: 89.1 µM [inhibitor, single point]
64 | CCC/C(O)=C1\C(=O)CCCC1=NCCc1c(C)[nH]c2ccccc12 | inconclusive: 50.1 µM [inhibitor, partial curve]
65 | COc1ccc(NC(=O)c2sc3ncnc(N4CCN(c5ccccn5)CC4)c3c2C)cc1Cl | inconclusive: 79.4 µM [inhibitor, single point]
66 | COc1ccc(CN(C)C(=O)Cn2ccsc2=N)cc1OC | inactive
67 | CC(CN1CCN(C)CC1)OC(=O)c1ccc(Cl)cc1Cl (stereo unspecified) | inconclusive: 89.1 µM [inhibitor, single point]
68 | CCOc1cc(/C=C2\N=C(C)OC2=O)cc(Br)c1OCCc1ccccc1 | inactive
69 | COc1cc(/C=C2\SC(c3ccccc3)=NC2=O)cc(Cl)c1O | active: 35.5 µM
70 | COC(=O)CCc1c(C)nn(-c2ccccc2)c1C | inconclusive: 89.1 µM [inhibitor, single point]
71 | OCCN(CCO)c1ccc(C(c2ccccc2Cl)c2ccc(N(CCO)CCO)cc2Cl)c(Cl)c1 | inconclusive: 44.7 µM [inhibitor, partial curve]
